Experimental data taken from patent publication US20200079850A1 (SUTRO BIOPHARMA, published 2020).
Like-named read-outs stand apart in the source and are kept apart here.

How the values were obtained:
[1] = molecular target: T1, human PD-1 expressed on the surface of CHO cells (human, UniProt Q15116 25-288); assay: flow cytometry, CHO-PD1 cells
T1 construct: I took it as human PD-1; also called CHO-PD1
Description: (§1) CHO-k cells stably expressing PD-1 or LAG3 (human or cynomolgus) on the cell surface were used to assess binding affinity of anti-PD-1/LAG3 bispecific antibody constructs. Cells were seeded at 100,000 cells/well in 100 μL of FACS buffer (1×PBS, 0.5% BSA, 0.1% sodium azide) in 96-well polypropylene plates. The cells were centrifuged at 1.5K rpm and resuspended with test antibodies diluted in FACS buffer and incubated on ice for 1 hour. The cells were washed twice with FACS buffer and incubated on ice for 30 mins with R-Phycoerythrin-AffiniPure F(ab′)2 Fragment Goat Anti-Human IgG (H+L) secondary detection antibody (1:200 dilution, Jackson ImmunoResearch Laboratories, West Grove, Pa.). The cells were washed twice with FACS buffer, fixed in 4% paraformaldehyde in PBS (Santa Cruz Biotechnology; Dallas, Tex.) for 20 mins on ice in the dark, washed twice with FACS buffer, and analyzed using the BD LSR II Flow Cytometer (BD Biosciences; San Jose, Calif.). Data were analyzed using FlowJo (FlowJo, LLC; Ashland, Oreg.) to determine mean fluorescence intensities. Binding constants were calculated using the statistical software, GraphPad Prism (GraphPad Software; La Jolla, Calif.) using the nonlinear regression equation, one site—specific binding with Hill slope. The secondary antibody by itself was used as a control.

[2] = molecular target: T1, human PD-1 expressed on the surface of …; assay: flow cytometry, CHO-PD1 cells; remark: listed apart in the source
Description: as §1

[3] = molecular target: T2, human LAG3 expressed on the cell surface (CHO-LAG3, 293T-LAG3 cells) (human, UniProt P18627 23-525); assay: flow cytometry, 293T-LAG3 cells
T2 construct: Stably transfected CHO or HEK293T cells; also called Human LAG3 (CHO); Human LAG3 (293T)
T2 sequence: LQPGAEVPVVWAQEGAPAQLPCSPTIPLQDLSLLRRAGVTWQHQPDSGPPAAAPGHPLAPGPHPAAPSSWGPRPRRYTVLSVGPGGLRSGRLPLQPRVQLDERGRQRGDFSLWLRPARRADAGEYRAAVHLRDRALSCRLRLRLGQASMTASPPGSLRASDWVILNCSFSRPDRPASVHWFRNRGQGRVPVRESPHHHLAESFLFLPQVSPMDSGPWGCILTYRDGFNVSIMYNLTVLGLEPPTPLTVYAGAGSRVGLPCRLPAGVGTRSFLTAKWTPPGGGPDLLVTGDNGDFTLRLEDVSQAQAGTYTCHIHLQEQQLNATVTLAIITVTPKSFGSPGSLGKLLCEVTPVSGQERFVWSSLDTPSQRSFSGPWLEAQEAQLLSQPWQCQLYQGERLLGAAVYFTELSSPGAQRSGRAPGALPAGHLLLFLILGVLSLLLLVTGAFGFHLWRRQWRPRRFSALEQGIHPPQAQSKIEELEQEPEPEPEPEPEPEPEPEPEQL

[4] = molecular target: T3, LAG3 (ELISA antigen of Table 25) (Homo sapiens (Human), UniProt P18627 23-450); assay: LAG3 ELISA
T3 sequence: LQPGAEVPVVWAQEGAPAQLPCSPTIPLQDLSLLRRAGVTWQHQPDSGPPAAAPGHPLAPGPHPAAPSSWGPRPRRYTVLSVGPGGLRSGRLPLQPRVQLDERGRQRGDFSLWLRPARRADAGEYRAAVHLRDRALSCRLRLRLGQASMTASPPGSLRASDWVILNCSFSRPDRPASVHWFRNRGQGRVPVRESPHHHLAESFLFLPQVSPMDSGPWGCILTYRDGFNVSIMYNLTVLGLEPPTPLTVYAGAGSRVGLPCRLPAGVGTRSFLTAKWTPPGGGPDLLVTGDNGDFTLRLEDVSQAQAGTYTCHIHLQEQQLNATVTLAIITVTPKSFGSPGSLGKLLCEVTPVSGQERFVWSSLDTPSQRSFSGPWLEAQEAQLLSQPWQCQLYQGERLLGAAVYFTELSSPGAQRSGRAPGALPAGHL

[5] = molecular target: T2, human LAG3 expressed on the cell …; assay: flow cytometry, CHO cells expressing human LAG3
Description: (§2) LAG3 antibody variants were tested in a fluorescence-activated cell sorting (FACS) cell-binding assay. Chinese Hamster Ovary (CHO) cells or HEK293T cells stably expressing the human target molecule LAG3 on the cell surface (CHO-LAG3, 293T-LAG3) were used to screen for cell binders by flow cytometry. Parental CHO or 293T cells were used as a negative control to determine background-binding levels. Cells were cultured in RPMI with 10% FCS Penicillin/Streptomycin (or Pen/Strep) and glutamine (or Gln) and split every 3-4 days at 10⁵ cells/ml.
A mix of parental CHO cells and CHO-LAG3 cells (or 293T and 293T-LAG3 cells) was prepared as follows: Parental CHO cells were washed 2× in PBS then incubated in PBS containing 1 nM CellTrace™ Oregon Green488® (Life Technologies) at 37° C. for 30 minutes. […] Parental CHO cells and CHO-LAG3 cells were then mixed to obtain a 1:1 cell suspension and seeded at 100 μl per well on 96 well polypropylene plates. Plates were spun at 1500 rpm for 5 minutes and cell pellets were suspended in 50 μl FACS buffer containing 6-12 point dilutions of anti-LAG3 variants starting from concentrations of ˜100-200 nM antibody, dispensed using BioMekFX (Beckman Coulter). Cells were then incubated on ice for 1 hr, washed with FACS buffer and incubated for 1 hr on ice with 50 μl FACS buffer containing 2.5 μg/ml R-Phycoerythrin-conjugated Goat Anti-Human IgG (Jackson ImmunoResearch) or AF647-conjugated Goat Anti-mouse IgG (Life Technologies) dispensed using BioMekFX (Beckman Coulter). Cells were then washed 2× with FACS buffer and fixed for 10 minutes in 200 μl PBS with 2% PFA prior to fluorescence detection. Samples were acquired using a Beckton Dickinson LSRII FACS. Mean Fluorescence Intensity of LAG3 antibody binding was analyzed using Tree Star, Inc. FlowJo® software.

[6] = molecular target: T4, human LAG3-Fc (R&D Systems #2319-L3) (human, UniProt P18627 23-450); assay: SPR (Biacore), antibody captured by anti-Flag, LAG3-Fc as analyte, 25 C
T4 construct: Bought protein; also called Human LAG3 (Biacore)
T4 sequence: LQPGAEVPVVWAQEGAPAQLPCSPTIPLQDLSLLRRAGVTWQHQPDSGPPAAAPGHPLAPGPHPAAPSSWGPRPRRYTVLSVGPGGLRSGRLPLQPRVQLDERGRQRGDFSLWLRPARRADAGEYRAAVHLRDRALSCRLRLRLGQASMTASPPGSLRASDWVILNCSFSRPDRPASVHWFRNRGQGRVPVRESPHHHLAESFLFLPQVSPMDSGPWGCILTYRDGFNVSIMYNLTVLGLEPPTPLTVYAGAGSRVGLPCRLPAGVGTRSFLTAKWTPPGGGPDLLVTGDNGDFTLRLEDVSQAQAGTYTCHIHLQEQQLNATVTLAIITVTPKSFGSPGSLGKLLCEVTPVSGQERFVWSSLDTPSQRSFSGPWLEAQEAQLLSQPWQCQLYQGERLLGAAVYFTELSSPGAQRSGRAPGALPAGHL
Description: Anti-Flag M2 IgG (Sigma-Aldrich # F9291) was immobilized onto a CMS chip (GE Life Sciences) using amine coupling chemistry (from Amine Coupling Kit, GE Life Sciences). The immobilization steps were carried out at a flow rate of 25 μL/min in 1×HBS-EP+ buffer (GE Life Sciences; 10×Stock diluted before use). The sensor surfaces were activated for 7 min with a mixture of NHS (0.05 M) and EDC (0.2 M). The Anti-Flag M2 IgG was injected over all 4 flow cells at a concentration of 25 μg/mL in 10 mM sodium acetate, pH 4.5, for 7 min. Ethanolamine (1 M, pH 8.5) was injected for 7 min to block any remaining activated groups. An average of 12,000 response units (RU) of capture antibody was immobilized on each flow cell.
Off-rate and kinetic binding experiments were performed at 25° C. using 1×HBS-EP+buffer. Test and control antibodies were injected over the Anti-Flag surface at concentrations of 5-10 μg/mL for 12 seconds at a flow rate of 10 μL/min on flow cells 2, 3 and 4, followed by a buffer wash for 30 seconds at the same flow rate. Kinetic characterization of antibody samples was carried out with a single concentration of antigen (for off-rate ranking) or a dilution series of antigen (for kinetic characterization) and 1 injection of 0 nM antigen. After capturing ligand (antibody) on the anti-Flag surface, the analyte (human LAG3-Fc, R&D Systems #2319-L3; or cynomolgus LAG3-Fc, accession # NC 022282.1) was bound at 50, 25, 12.5, 6.25, and 0 nM for 180 seconds, followed by a 600 second dissociation phase at a flow rate of 50 μl/min Between each ligand capture and analyte binding cycle, regeneration was carried out using 2 injections of 10 mM glycine pH 2.0 for 30 seconds at 30 μL/min, followed by a 30 second buffer wash step.
The data were fit with the Biacore T200 Evaluation software, using a 1:1 Langmuir binding model. KD (affinity, nM) was determined as a ratio of the kinetic rate constants calculated from the fits of the association and dissociation phases.

[7] = molecular target: T2, human LAG3 expressed on the cell …; assay: flow cytometry, 293T cells expressing human LAG3
Description: as §2
A mix of parental CHO cells and CHO-LAG3 cells (or 293T and 293T-LAG3 cells) was prepared as follows: Parental CHO cells were washed 2× in PBS then incubated in PBS containing 1 nM CellTrace™ Oregon Green488® (Life Technologies) at 37° C. for 30 minutes. […] Parental CHO cells and CHO-LAG3 cells were then mixed to obtain a 1:1 cell suspension and seeded at 100 μl per well on 96 well polypropylene plates. […] Cells were then washed 2× with FACS buffer and fixed for 10 minutes in 200 μl PBS with 2% PFA prior to fluorescence detection. […] Mean Fluorescence Intensity of LAG3 antibody binding was analyzed using Tree Star, Inc. FlowJo® software.

T1 sequence (Q15116 25-288 limits assumed): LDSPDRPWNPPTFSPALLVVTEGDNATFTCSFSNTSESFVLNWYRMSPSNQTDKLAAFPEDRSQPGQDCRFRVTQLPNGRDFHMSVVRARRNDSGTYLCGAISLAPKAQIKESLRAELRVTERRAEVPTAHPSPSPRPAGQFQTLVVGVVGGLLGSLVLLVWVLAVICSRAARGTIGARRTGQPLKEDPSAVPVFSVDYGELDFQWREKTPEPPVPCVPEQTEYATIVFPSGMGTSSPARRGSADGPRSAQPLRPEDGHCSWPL

B1: Construct E: aLAG3 1449-G09.2_K x aPD1 1353-G10_H (two-chain scFvFc, knob-in-hole) (bispecific antibody)
scFv 1: MQVQLVESGGGVVQPGRSLRLSCAASGFTFSSYGMHWVRQAPGKGLEWVAVIWYDGSYKYYADSVKGRFTISRDNSKNTLYLQMNSLRAEDTAVYYCAREEAPENWDYALDVWGQGTTVTVSSAPGPSAPSHRSLPSRAFG[no letters for about 100 residues]SFGPGTKVDIKAAGSDQ[no letters for human IgG1 Fc with changes]
scFv 2: MEVQLVQSGAEVKKPGASVKVSCKASGYRFPHYGISWVRQAPGQGLEWMGWISAYNGNTNYAQKLQGRVTMTTDTSTNTAYMELRSLRSDDTAVYYCARDVDYGTGSGYWGQGTLVTVSSGGGGSGGGGSGGGGSSYELTQPPSVSVSPGQTARITCSGDALPKQYAYWYQQKPGQAPVMVIYKDTERPSGIPERFSGSSSGTKVTLTISGVQAEDEADYYCQSADNSITYRVFGGGTKVTVLAAGSDQ[no letters for human IgG1 Fc with changes]
[1]
  Kd: 3 nM
[2]
  Bmax: 6300
  Kd: 1 nM
[3]
  Kd: 8 nM
[4]
  EC50: 0.69 nM

B2: SRP1449-D05 (scFv)
chain: QVQLVESGGGVVQPGRSLRLSCAASGFTFRSFGMHWVRQAPGKGLEWVAVIWYDGSVKYYADSVKGRFTISRDNSKNTLYLQMNSLRAEDTAVYYCAREWADVSWDAGLDVWGQGTTVTVSSGGGGSGGGGSGGGGS[no letters for about 100 residues]KFGPGTKVDIKAAGSDQ[no letters for human IgG1 Fc with changes]GSGDYKDDDDKGSG
[5]
  Kd: 1.54 nM

B3: SRP1449-F01 (scFv)
chain: QVQLVESGGGVVQPGRSLRLSCAASGFTFSSYGMHWVRQAPGKGLEWVAVIWYDGSYKYYADSVKGRFAISRDNSKNTLYLQMNSLRAEDTAVYYCARESEVASWDYGLDVWGQGTTVTVSSGGGGSGGGGSGGGGS[no letters for about 100 residues]FGPGTKVDIKAAGSDQ[no letters for human IgG1 Fc with changes]GSGDYKDDDDKGSG
[5]
  Kd: 3.37 nM

B4: 1449-G09.2 (scFv)
chain: QVQLVESGGGVVQPGRSLRLSCAASGFTFSSYGMHWVRQAPGKGLEWVAVIWYDGSYKYYADSVKGRFTISRDNSKNTLYLQMNSLRAEDTAVYYCAREEAPENWDYALDVWGQGTTVTVSSGGGGSGGGGSGGGGS[no letters for about 100 residues]SFGPGTKVDIKAAGSDQ[no letters for human IgG1 Fc with changes]GSGDYKDDDDKGSG
[5]
  Kd: 0.32 nM

B5: SRP1558-A06 (scFv)
chain: EVQLLESGGGLVQPGGSLRLSCAASGFTFSESTMSWVRQAPGKGLEWVGFITSDSGTTDYADSVKGRFTISRDNSKNTLYLQMNSLRAEDTAVYYCAKVFEGGVRPFSDYWGQGTLVTVSSGGGGSGGGGSGGGGSEIVLTQSPGTLSLSPGERATLSCRASQSVSSNPLAWYQQKPGQAPRLLIYGASSRATGIPDRFSGSGSGTDFTLTISRLEPEDFAVYYCQQYMAGPPTFGQGTKVEIKAAGSDQ[no letters for human IgG1 Fc with changes]GSGDYKDDDDKGSG
[6]
  Kd: 13 nM
  koff: 0.0099 s⁻¹
  kon: 790000 M⁻¹ s⁻¹

B6: SRP1558-F01 (scFv)
chain: EVQLLESGGGLVQPGGSLRLSCAASGFTFPDSSMSWVRQAPGKGLEWVGVITDNSGNTDYADSVKGRFTISRDNSKNTLYLQMNSLRAEDTAVYYCAKVFEGGVRPYSDYWGQGTLVTVSSGGGGSGGGGSGGGGSEIVLTQSPGTLSLSPGERATLSCRASQSVSSGNPAWYQQKPGQAPRLLIYGASSRATGIPDRFSGSGSGTDFTLTISRLEPEDFAVYYCQQYTAGPPTFGQGTKVEIKAAGSDQ[no letters for human IgG1 Fc with changes]GSGDYKDDDDKGSG
[6]
  Kd: 24 nM
  koff: 0.011 s⁻¹
  kon: 435000 M⁻¹ s⁻¹
[7]
  Kd: 0.5 nM

B7: SRP1448-D09 (scFv)
chain: EVQLLESGGGLVQPGGSLRLSCAASGFTFTDSSMSWVRQAPGKGLEWVGVITGNSGTTDYADSVKGRFTISRDNSKNTLYLQMNSLRAEDTAVYYCAKVYEGGVRPYSDYWGQGTLVTVSSGGGGSGGGGSGGGGSEIVLTQSPGTLSLSPGERATLSCRASQSVSSSYLAWYQQKPGQAPRLLIYGASSRATGIPDRFSGSGSGTDFTLTISRLEPEDFAVYYCQQDTAGPPTFGQGTKVEIKAAGSDQ[no letters for human IgG1 Fc with changes]GSGDYKDDDDKGSG
[7]
  Kd: 0.4 nM
